Here are results for 35 sequences from publication PMC12529666.

Some of the results follow. At the low end of the ranking the order means little.

The target of the experiment is AGO2 WT (phosphosite mutant background) S387D + S824A + S828D + S831D + S834A (UniProt Q9UKV8). The experiment in a line: RNA Bind-n-Seq (nitrocellulose filter binding and sequencing). The conditions noted are these: constant regions annealed to DNA blockers; guide miR-122 5' phosphate; 30 mM Tris pH 8.0, 100 mM potassium acetate, 2 mM magnesium acetate, 0.5 mM TCEP, 0.005% NP-40, 0.01 mg/ml yeast tRNA; 3 nM AGO2-miR-122, 100 nM RNA library …; high values mean tight binding.
With “GAGUUCUACAGUCCGACGAUCCCAACGUACCCCGCACCUGGAAUUCUCGGGUGCCAA / UGGAGUGUGACAAUGGUGUUUG / GATCGTCGGACTGTAGAACTC / TTGGCACCCGAGAATTCCA”, the binding signal (fold enrichment over input) turned out to be 0.0913.
As to “GAGUUCUACAGUCCGACGAUCCCAACAUGCUCCGCACCUGGAAUUCUCGGGUGCCAA / UGGAGUGUGACAAUGGUGUUUG / GATCGTCGGACTGTAGAACTC / TTGGCACCCGAGAATTCCA”, the binding signal (fold enrichment over input) was 0.186.
To “GAGUUCUACAGUCCGACGAUCCCAACAUGCUUCGCACCUGGAAUUCUCGGGUGCCAA / UGGAGUGUGACAAUGGUGUUUG / GATCGTCGGACTGTAGAACTC / TTGGCACCCGAGAATTCCA” belongs 0.0868.
For the sequence “GAGUUCUACAGUCCGACGAUCCCAACGCGCCUCACACCUGGAAUUCUCGGGUGCCAA / UGGAGUGUGACAAUGGUGUUUG / GATCGTCGGACTGTAGAACTC / TTGGCACCCGAGAATTCCA”, the binding signal (fold enrichment over input) was determined as 0.131.
For “GAGUUCUACAGUCCGACGAUCCCAACGUGUCUUACACCUGGAAUUCUCGGGUGCCAA / UGGAGUGUGACAAUGGUGUUUG / GATCGTCGGACTGTAGAACTC / TTGGCACCCGAGAATTCCA”, the binding signal (fold enrichment over input) amounted to 0.113.
In the case of “GAGUUCUACAGUCCGACGAUCCCAACGCGCCUCGCACCUGGAAUUCUCGGGUGCCAA / UGGAGUGUGACAAUGGUGUUUG / GATCGTCGGACTGTAGAACTC / TTGGCACCCGAGAATTCCA”, the binding signal (fold enrichment over input) worked out at 0.107.
Under “GAGUUCUACAGUCCGACGAUCCCAACGCACCCCGCACCUGGAAUUCUCGGGUGCCAA / UGGAGUGUGACAAUGGUGUUUG / GATCGTCGGACTGTAGAACTC / TTGGCACCCGAGAATTCCA” stands 0.129; under “GAGUUCUACAGUCCGACGAUCCCAACAUACCCCACACCUGGAAUUCUCGGGUGCCAA / UGGAGUGUGACAAUGGUGUUUG / GATCGTCGGACTGTAGAACTC / TTGGCACCCGAGAATTCCA”, 0.102.
Regarding “GAGUUCUACAGUCCGACGAUCCCAACAUGUUCUGCACCUGGAAUUCUCGGGUGCCAA / UGGAGUGUGACAAUGGUGUUUG / GATCGTCGGACTGTAGAACTC / TTGGCACCCGAGAATTCCA”, the binding signal (fold enrichment over input) was 0.0901.
To “GAGUUCUACAGUCCGACGAUCCCAACGUGCCUUACACCUGGAAUUCUCGGGUGCCAA / UGGAGUGUGACAAUGGUGUUUG / GATCGTCGGACTGTAGAACTC / TTGGCACCCGAGAATTCCA” belongs 0.126; to “GAGUUCUACAGUCCGACGAUCCCAACACGUCUCACACCUGGAAUUCUCGGGUGCCAA / UGGAGUGUGACAAUGGUGUUUG / GATCGTCGGACTGTAGAACTC / TTGGCACCCGAGAATTCCA”, 0.177.
Regarding “GAGUUCUACAGUCCGACGAUCCCAACAUGCUUUGCACCUGGAAUUCUCGGGUGCCAA / UGGAGUGUGACAAUGGUGUUUG / GATCGTCGGACTGTAGAACTC / TTGGCACCCGAGAATTCCA”, the binding signal (fold enrichment over input) is 0.0853.
Under “GAGUUCUACAGUCCGACGAUCCCAACACGCCCUGCACCUGGAAUUCUCGGGUGCCAA / UGGAGUGUGACAAUGGUGUUUG / GATCGTCGGACTGTAGAACTC / TTGGCACCCGAGAATTCCA” stands 0.0958; under “GAGUUCUACAGUCCGACGAUCCCAACACGUCCUACACCUGGAAUUCUCGGGUGCCAA / UGGAGUGUGACAAUGGUGUUUG / GATCGTCGGACTGTAGAACTC / TTGGCACCCGAGAATTCCA”, 0.106.
Under “GAGUUCUACAGUCCGACGAUCCCAACAUACUUUGCACCUGGAAUUCUCGGGUGCCAA / UGGAGUGUGACAAUGGUGUUUG / GATCGTCGGACTGTAGAACTC / TTGGCACCCGAGAATTCCA” stands 0.0951; under “GAGUUCUACAGUCCGACGAUCCCAACACAUCUCGCACCUGGAAUUCUCGGGUGCCAA / UGGAGUGUGACAAUGGUGUUUG / GATCGTCGGACTGTAGAACTC / TTGGCACCCGAGAATTCCA”, 0.0811; under “GAGUUCUACAGUCCGACGAUCCCAACACAUCCCACACCUGGAAUUCUCGGGUGCCAA / UGGAGUGUGACAAUGGUGUUUG / GATCGTCGGACTGTAGAACTC / TTGGCACCCGAGAATTCCA”, 0.154.
Regarding “GAGUUCUACAGUCCGACGAUCCCAACAUGCCUCGCACCUGGAAUUCUCGGGUGCCAA / UGGAGUGUGACAAUGGUGUUUG / GATCGTCGGACTGTAGAACTC / TTGGCACCCGAGAATTCCA”, the binding signal (fold enrichment over input) came to 0.0832.
On to “GAGUUCUACAGUCCGACGAUCCCAACGUGUUCUACACCUGGAAUUCUCGGGUGCCAA / UGGAGUGUGACAAUGGUGUUUG / GATCGTCGGACTGTAGAACTC / TTGGCACCCGAGAATTCCA”, for which the binding signal (fold enrichment over input) is 0.0969.
Under “GAGUUCUACAGUCCGACGAUCCCAACGUGUUCUGCACCUGGAAUUCUCGGGUGCCAA / UGGAGUGUGACAAUGGUGUUUG / GATCGTCGGACTGTAGAACTC / TTGGCACCCGAGAATTCCA” stands 0.0929.
In the case of “GAGUUCUACAGUCCGACGAUCCCAACACAUCCCGCACCUGGAAUUCUCGGGUGCCAA / UGGAGUGUGACAAUGGUGUUUG / GATCGTCGGACTGTAGAACTC / TTGGCACCCGAGAATTCCA”, the binding signal (fold enrichment over input) is 0.128.
For the sequence “GAGUUCUACAGUCCGACGAUCCCAACGUGUUUCGCACCUGGAAUUCUCGGGUGCCAA / UGGAGUGUGACAAUGGUGUUUG / GATCGTCGGACTGTAGAACTC / TTGGCACCCGAGAATTCCA”, the binding signal (fold enrichment over input) worked out at 0.0901.
Under “GAGUUCUACAGUCCGACGAUCCCAACGCAUCCUACACCUGGAAUUCUCGGGUGCCAA / UGGAGUGUGACAAUGGUGUUUG / GATCGTCGGACTGTAGAACTC / TTGGCACCCGAGAATTCCA” stands 0.105; under “GAGUUCUACAGUCCGACGAUCCCAACACAUUUUGCACCUGGAAUUCUCGGGUGCCAA / UGGAGUGUGACAAUGGUGUUUG / GATCGTCGGACTGTAGAACTC / TTGGCACCCGAGAATTCCA”, 0.0851; under “GAGUUCUACAGUCCGACGAUCCCAACGUAUCUUGCACCUGGAAUUCUCGGGUGCCAA / UGGAGUGUGACAAUGGUGUUUG / GATCGTCGGACTGTAGAACTC / TTGGCACCCGAGAATTCCA”, 0.086.
To “GAGUUCUACAGUCCGACGAUCCCAACAUGUUCCGCACCUGGAAUUCUCGGGUGCCAA / UGGAGUGUGACAAUGGUGUUUG / GATCGTCGGACTGTAGAACTC / TTGGCACCCGAGAATTCCA” belongs 0.0928; to “GAGUUCUACAGUCCGACGAUCCCAACACGUUUCGCACCUGGAAUUCUCGGGUGCCAA / UGGAGUGUGACAAUGGUGUUUG / GATCGTCGGACTGTAGAACTC / TTGGCACCCGAGAATTCCA”, 0.0857; to “GAGUUCUACAGUCCGACGAUCCCAACGCAUUUCGCACCUGGAAUUCUCGGGUGCCAA / UGGAGUGUGACAAUGGUGUUUG / GATCGTCGGACTGTAGAACTC / TTGGCACCCGAGAATTCCA”, 0.0838.
Under “GAGUUCUACAGUCCGACGAUCCCAACGUACCCUGCACCUGGAAUUCUCGGGUGCCAA / UGGAGUGUGACAAUGGUGUUUG / GATCGTCGGACTGTAGAACTC / TTGGCACCCGAGAATTCCA” stands 0.0887; under “GAGUUCUACAGUCCGACGAUCCCAACGCAUUCCGCACCUGGAAUUCUCGGGUGCCAA / UGGAGUGUGACAAUGGUGUUUG / GATCGTCGGACTGTAGAACTC / TTGGCACCCGAGAATTCCA”, 0.108.
Consider “GAGUUCUACAGUCCGACGAUCCCAACAUGCCCUACACCUGGAAUUCUCGGGUGCCAA / UGGAGUGUGACAAUGGUGUUUG / GATCGTCGGACTGTAGAACTC / TTGGCACCCGAGAATTCCA”, for which the binding signal (fold enrichment over input) was found to be 0.0977.
To “GAGUUCUACAGUCCGACGAUCCCAACGCAUCUUGCACCUGGAAUUCUCGGGUGCCAA / UGGAGUGUGACAAUGGUGUUUG / GATCGTCGGACTGTAGAACTC / TTGGCACCCGAGAATTCCA” belongs 0.0852.
On to “GAGUUCUACAGUCCGACGAUCCCAACACAUUCUACACCUGGAAUUCUCGGGUGCCAA / UGGAGUGUGACAAUGGUGUUUG / GATCGTCGGACTGTAGAACTC / TTGGCACCCGAGAATTCCA”, for which the binding signal (fold enrichment over input) is 0.107.
For the sequence “GAGUUCUACAGUCCGACGAUCCCAACGCGCUCUACACCUGGAAUUCUCGGGUGCCAA / UGGAGUGUGACAAUGGUGUUUG / GATCGTCGGACTGTAGAACTC / TTGGCACCCGAGAATTCCA”, the binding signal (fold enrichment over input) was determined as 0.108.
As to “GAGUUCUACAGUCCGACGAUCCCAACGCGUCCUACACCUGGAAUUCUCGGGUGCCAA / UGGAGUGUGACAAUGGUGUUUG / GATCGTCGGACTGTAGAACTC / TTGGCACCCGAGAATTCCA”, the binding signal (fold enrichment over input) amounted to 0.123.
